Test results taken from US8563706B2, “Efficient cell culture system for hepatitis C virus genotype 1A and 1B” (priority 2007, dated 2013).

System: Huh7.5 cells

NC(=O)c1ncn([C@@H]2O[C@H](CO)[C@@H](O)[C@H]2O)n1 [ribavirin]
cytotoxic effect: no significant cytotoxic effect

NC12CC3CC(CC(C3)C1)C2 [amantadine]
cytotoxic effect: no significant cytotoxic effect
